Assay results from PubChem BioAssay AID1477 (National Center for Advancing Translational Sciences (NCATS), 2009).
The whole screen tested about 230,000 compounds, of which fewer than 10 were called active. Inconclusive results, whose numbers are uncertain, are shown with a selection of clear calls. Calls come from the whole dose curve; as a rule, active = well fitted curve in the direction sought with a large enough effect; inconclusive = small, poorly fitted or top-dose-only effect, or effect the other way, or another doubt; inactive = no such curve, though single readings can be large or run the other way. Potencies of inconclusive entries are left out as doubtful fits.

What follows are compounds tested against Runt-related transcription factor 1 (Homo sapiens) + Core-binding factor subunit beta (Homo sapiens) (UniProt Q01196+Q13951) (assay: qHTS Assay for Compounds Blocking the Interaction Between CBF-beta and RUNX1 for the Treatment of Acute Myeloid Leukemia). Settings: AlphaScreen CBFb-His/RUNX1-biotin binding, biochemical; activity, negative = inhibition: at 59.8 µM (top of the series) unless noted.
Procedure, shortened: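 CBFb-His/RUNX1-biotin, 30 nM each, preincubated 20 min RT; compound 15 min RT; Ni + streptavidin beads 50 ng each, 90 min RT; AlphaScreen read.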
Throughout, for activity, negative = inhibition: % of control where 0% means no effect.

SMILES | Potency | activity, negative = inhibition
CCOC(=O)c1c(NC(=O)c2cccs2)sc(CC)c1-c1cccs1 | inconclusive [activator, single point] | 
CC(C)n1c(=O)c(C=Nc2ccc(S(N)(=O)=O)cc2)c(O)n(Cc2ccco2)c1=O | inconclusive [inhibitor, single point] | 
CCOC(=O)C1CCN(C(=O)/C(C)=C\c2ccccc2)CC1 |  | inactive: 3.01%
CO[C@@H](CCO)C[C@H]1O[C@H](C(=O)OC(C)C)CC[C@@H]1C |  | inactive: -5.92%
O=C(c1cc2nc(-c3ccccc3)cc(-c3ccccc3)n2n1)N1CCC2(CC1)OCCO2 | inconclusive [activator, partial curve] | 
O=[N+]([O-])c1ccc(Nc2c3ccccc3nc3ccccc23)cc1 | inconclusive [inhibitor, single point] | 
CC1CCCN(C(C(=O)NC2CCCCC2)c2cc3c(cc2[N+](=O)[O-])OCO3)C1 (centres undefined) |  | inactive: -3.71%
COC(=O)c1cc2c(s1)-c1ccccc1OC2 | inconclusive [activator, partial curve] | 
Cc1ccc(NC(=O)CSc2nnc(-c3ccccn3)n2N)c(Br)c1 | inconclusive [inhibitor, single point] | 
NC(N)=Nc1nc(C2COc3ccccc3O2)cs1 (centres undefined) |  | inactive: 0.202%
O=S(=O)(CCc1ccccc1)/N=C/c1cccs1 |  | inactive: 11.1%
O=C(NC(Cc1c[nH]c2ccccc12)C(=O)OCC(=O)c1cccc2ccccc12)c1cccs1 (centres undefined) | inconclusive [inhibitor, single point] | 
CCOc1cc(NC(C)=O)ccc1C(=O)OC |  | inactive: 9.33%
O=C(COC(=O)c1oc2ccccc2c1CSc1ccc(Cl)cc1)NC1CCCC1 | inconclusive [activator, single point] | 
O=C(CSc1ccc2nnc(-c3ccccn3)n2n1)Nc1ccc2c(c1)OCCO2 | inconclusive [inhibitor, partial curve] | 
COc1ccc(C2CC2/C(=N/O)c2ccccn2)cc1 (centres undefined) | inconclusive [inhibitor, partial curve] | 
COc1ccc(N2CCN(c3cc(C)c4ccc(C)cc4n3)CC2)cc1 | inconclusive [inhibitor, single point] | 
Cc1cccc(NC(=O)c2cnc3sccn3c2=O)c1C | inconclusive [inhibitor, single point] | 
CCOC(=O)c1c(C)n(OCc2ccccc2)c2ccc3nonc3c12 | inconclusive [activator, partial curve] | 
O=C1C2CC=CCC2C(=O)N1c1ccc(NCCc2ccc(Cl)cc2)c([N+](=O)[O-])c1 (centres undefined) | inconclusive [inhibitor, partial curve] | 
O=c1[nH][nH]c(=S)n1C1CCCCC1 |  | inactive: -2.4%
CC1=C(C(=O)Nc2cccc(F)c2)C(c2ccsc2)C2=C(CC(C)(C)CC2=O)N1 (centres undefined) |  | inactive: 2.9%
CC1CCN(S(=O)(=O)c2cccc(C(=O)Nc3ccccc3)c2)CC1 |  | inactive: 3.49%
O=[N+]([O-])c1ccccc1/C=N/N1CCN(c2ccncc2S(=O)(=O)N2CCCCC2)CC1 | inconclusive [inhibitor, partial curve, poor fit] | 
CC1=NN(c2nc(-c3ccc(C)cc3)cs2)C(=O)C1N=Nc1ccccc1O (centres undefined) | inconclusive [inhibitor, partial curve] | 

SMILES | Potency | activity, negative = inhibition
COc1ccccc1C1=NNC(=NCc2ccccc2)SC1 |  | inactive: -12.4%
COc1ccc(/C=C2/C(=O)N(Cc3ccco3)C(=O)N(C(C)C)C2=O)cc1 | inconclusive [inhibitor, single point] | 
CC(C)(C)C(=O)NC(=S)NNC(=O)c1ccc(-c2ccccc2)cc1 | inconclusive [inhibitor, partial curve] | 
CCN(CC)CCC(c1ccc(N(C)C)cc1)c1c(OC)cc(OC)c2c1OC(=O)CC2c1ccc(OC)cc1 (centres undefined) | inconclusive [inhibitor, single point] | 
O=C(O)c1cccc(Cn2c(Cl)c(/C=N/NC(=O)c3ccc(O)cc3)sc2=O)c1 |  | inactive: 14.3%
OCC1(Cc2ccccc2)CCN(Cc2cccc(F)c2F)CC1 |  | inactive: 7.55%
CC1CCCN(C(=S)Nc2ccc(S(=O)(=O)N3CCCCC3)cc2)C1 (centres undefined) |  | inactive: 14.4%
Cc1ccc(O)c(/C=N/NC(=O)c2[nH]ncc2Br)c1 | inconclusive [inhibitor, partial curve] | 
Cc1cc(=O)n2[nH]c(-c3ccc(F)cc3)cc2n1 | inconclusive [inhibitor, single point] | 
NC(=O)CC[C@@H]1NC(=O)[C@H](Cc2ccccc2)NC(=O)[C@H](Cc2ccc(O)cc2)NC(=O)[C@@H](N)CSSC[C@@H](C(=O)N2CCC[C@H]2C(=O)N[C@@H](CCCN=C(N)N)C(=O)NCC(N)=O)NC(=O)[C@H](CC(N)=O)NC1=O | inactive | 
C=CCn1c(SCC(=O)NNC(=O)Nc2ccc(C)cc2)nnc1-c1ccccc1 |  | inactive: 0.685%
O=c1cc(-c2c(O)c3ccccc3n(Cc3ccccc3)c2=O)[nH][nH]1 | inconclusive [inhibitor, single point] | 
CCCCCCCCC#CCC#CCC#CCCCC(=O)O | inactive | 
S=c1[nH]nc(-c2ccccn2)n1/N=C/c1cccc2ccccc12 | inconclusive [inhibitor, full curve] | 
COc1cc2c(cc1OC)C(c1ccccc1)CN(C)CC2 (centres undefined) |  | inactive: 9.14%
Cc1ccc(NC(=O)CN2C(=O)S/C(=C/c3ccc(-c4cc(C(=O)O)ccc4C)o3)C2=O)cc1C | inconclusive [inhibitor, single point] | 
CCN1/C(=C/c2sc(-c3ccccc3C)c[n+]2C)Sc2ccccc21 |  | inactive: -0.727%
CCNC(=S)N1CCN(CCN2C(=O)c3cccc4cccc(c34)C2=O)CC1 | inconclusive [inhibitor, single point] | 
Clc1ccccc1CSc1cc2c(nn1)-c1ccccc1CC2 | inconclusive [activator, single point] | 
COc1ccc(/C=N/NC(=O)c2cc(O)c(O)c(O)c2)cc1Cn1cc([N+](=O)[O-])cn1 | inconclusive [inhibitor, full curve] | 
Cc1ccc(-c2cc(C(=O)NCCCn3ccnc3)c3cc(Br)ccc3n2)o1 | inconclusive [inhibitor, full curve] | 
S=c1[nH]nc(CN2CCCCC2)n1Cc1ccccc1 |  | inactive: -13.5%
CCn1c(SCC(=O)NC(=O)NCc2ccco2)nc2sc(C)c(C)c2c1=O |  | inactive: -25.3%
Cc1cc(NC(=O)c2cc(-c3ccccc3)on2)no1 | inconclusive [activator, single point] | 
COc1cccc(NC(=O)CN(C)CC(=O)Nc2ccc(Cl)cc2[N+](=O)[O-])c1 | inconclusive [inhibitor, single point] | 

SMILES | Potency | activity, negative = inhibition
O=C(COc1ccc(Br)cc1Br)NC(=O)NC1CCCC1 | inconclusive [inhibitor, single point] | 
COc1ccc(CCN(C)CCc2ccc(OC)c(OC)c2)cc1OC | inconclusive [activator, single point] | 
COC(=O)c1ccc(N=NNc2ccc(C(=O)OC)cc2)cc1 | inconclusive [inhibitor, full curve, poor fit] | 
COc1ccccc1N1CCN(Cc2cc(Br)c(O)c3ncccc23)CC1 | inconclusive [inhibitor, partial curve] | 
Oc1ccc2ccccc2c1C=NCc1cn2ccsc2n1 |  | inactive: -25.7%
CCN(CC)CCCC(C)n1c(-c2ccccc2)nc2c(N3CCOCC3)nc(C)nc21 (centres undefined) |  | inactive: -0.591%
Cc1cnc(C(=O)OCC(=O)NC(C)CCc2ccccc2)cn1 (centres undefined) |  | inactive: 0.2%
CC(C)[N+](C)(C)CC#CC(O)(c1ccccc1)c1ccccc1 |  | inactive: 4.74%
COc1ccccc1N1CCN(C(=O)c2cc(-c3cccc(Cl)c3)on2)CC1 |  | inactive: 4.07%
CCOC(=O)C(=CNc1cccc(C)c1C)C(=O)OCC |  | inactive: 16.2%
CCOc1ccc(CCNC(=O)C2CCCN(C(=O)N(C)C)C2)cc1OCC (centres undefined) |  | inactive: -0.54%
Cc1cc(C(=O)Nc2c(F)c(F)c(F)c(F)c2F)n(-c2ccccc2)n1 |  | inactive: 20.2%
CCCCCCCC(=O)Nc1ccc(C(=O)N/N=C/c2cccc([N+](=O)[O-])c2)cc1 |  | inactive: 1.88%
COC(=O)COc1ccc2c(-c3cccc([N+](=O)[O-])c3)cc(=O)oc2c1 | inconclusive [inhibitor, single point] | 
CC(=O)NNc1nc(-c2ccccc2)cs1 |  | inactive: -8.15%
C[C@@H]1[C@@H](Sc2ccccc2)CC(=O)O[C@@H]1c1ccc(-c2ccccc2)cc1 | inconclusive [activator, partial curve] | 
Cc1cc(C(=O)COC(=O)CNC(=O)c2ccc(F)cc2)c(C)n1Cc1ccco1 | inconclusive [inhibitor, single point] | 
COc1ccccc1Oc1nc2c(c(=O)n(Cc3ccccc3F)c(=O)n2C)n1C | inconclusive [inhibitor, single point] | 
CC(C)(C)NC(=O)NC(=O)COC(=O)CNC(=O)C1CCCCC1 | inconclusive [inhibitor, single point] | 
Cc1ccc(-c2nc(N3CCOCC3)sc2C(=O)N2CCOCC2)cc1 |  | inactive: -2.69%
S=C(NCC1CCCO1)Nc1ccc(Nc2ccccc2)cc1 (centres undefined) | inconclusive [inhibitor, partial curve] | 
O=C(N/C=N/O)C1=NOC(CNc2ncc(C(F)(F)F)cc2Cl)C1 (centres undefined) |  | inactive: 0.92%
CC(C)CCOC(=O)/C=C/c1ccccc1 |  | inactive: 3.01% [at 21.7 µM]
CN(C)/C=N/c1ncc(C(=O)OC(C)(C)C)s1 | inconclusive [activator, partial curve] | 
